The values that follow come from PMC12136788.

The other results are listed elsewhere or left out.

T1: UNK ZnF1-3 (human, UniProt Q9C0B0 31-174)
T1 sequence: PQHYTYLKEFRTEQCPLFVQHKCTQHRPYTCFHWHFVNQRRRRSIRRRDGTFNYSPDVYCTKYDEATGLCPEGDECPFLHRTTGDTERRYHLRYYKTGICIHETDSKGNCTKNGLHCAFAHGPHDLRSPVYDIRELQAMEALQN

B1: chr1:163112212:163112213:-_ENSG00000143248_ENST00000313961|hu_hu|hu_hu_hu_mus_False|68_78 (ssRNA)
RNA: GGGAGUUCUACAGUCCGACGAUCUUUUAUUAUCAGUAAGAGUGAGUUACAUACUAGAUAAAGUAUUGAAUACAAAAAUCAGGAAACAAACACUAUUGGUCCAGAAUUUAAAACUUUAUGAGCGAAGUGCUGGCACAGGACUUACAACAGAGGAUUGAGCAUCA
B2: chr16:9197081:9197082:+_ENSG00000182831_ENST00000327827|perfect_dup|FALSE|FALSE (ssRNA)
RNA: GGGAGUUCUACAGUCCGACGAUCAAGACCAUGCAGAGCUAUGGCUUCCCGGAAGGGUUGCAAAUCAGUCUCUACAGAUGAGCUAGUUUCCGUUGAAGUAGCUCGGUUAGGGGACACUACAGUCAGUCUUGGGGGAGCUCUAGACAACAGAGGAUUGAGCAUCA
B3: chr6:168291551:168291552:+_ENSG00000130396_ENST00000400822|hu_mus|FALSE|FALSE (ssRNA)
RNA: GGGAGUUCUACAGUCCGACGAUCAUGUUUCUUCAUUUUCUUUGGGAUGUAGUCCGGUGGUCUCCUCUUCAACUGAAAGACUAAAAUCCCUUUGUCACUUGGCCAUUCCCUGAAGAUUUGUAAAGGACAUUCAUCAUCGUCAAGCAACAGAGGAUUGAGCAUCA
B4: chr16:32614670:32614671:+_ENSMUSG00000022797_ENSMUST00000023486|mus_hu|FALSE|FALSE (ssRNA)
RNA: GGGAGUUCUACAGUCCGACGAUCUACAGCAAGUUUCAUCUCCACAUGACUGUUAUCGCCAUCUACUUGCCGAGCCAGGCUGAACCGGGUAUAUGACAAUGGUUCUCCACCAAACAAGUUAGAGAAUGCUGAUCUAGCUUGAUCCAACAGAGGAUUGAGCAUCA
B5: chr2:153055717:153055718:-_ENSMUSG00000051413_ENSMUST00000056924|mus_mus|FALSE|FALSE (ssRNA)
RNA: GGGAGUUCUACAGUCCGACGAUCGAGGUCUCAAAGGCUCCACAAUGGUGGUCCCUGAGCUGCCUCCCUUCCAUGCACGGGAAAAACCCAUACAGAACCGAGAUGAAAUGGGUUAGGAAUUGUUCAGCUGCUUCUGGGCAAGGGCAACAGAGGAUUGAGCAUCA
B6: 3723961_3724081_3604_CDS_ENSG00000110713_ENST00000324932|human|control|control (ssRNA)
RNA: GGGAGUUCUACAGUCCGACGAUCGGGCAUUGUGAACACAGAAGUCAGGGGUGGAGGGACAGACCAAGAGGAUGUGGAUGGGAUAUUCAUUAAAGAUGCUGCUCUGGGAGUACGACAUUCUUGCACAGAGACACUUGGUGAAAGCAACAGAGGAUUGAGCAUCA
B7: chr3:148802587:148802588:-_ENSG00000071794_ENST00000310053|hu_mus|hu_hu_hu_mus_False|1_1 (ssRNA)
RNA: GGGAGUUCUACAGUCCGACGAUCUCCAACAACUUGUCCUCUCAUAGUUCCAAAUAAAACCAAAUCUUGCUCUUCAUCACUCGUUAGGAAGUCAUCUGGAGGAAUAAUGUCUUGGAAUUCAAAAUGUGGCAAGAAAGUUGGAUACAACAGAGGAUUGAGCAUCA
B8: chr9:21312366:21312367:-_ENSMUSG00000032180_ENSMUST00000034698|mus_hu|FALSE|FALSE (ssRNA)
RNA: GGGAGUUCUACAGUCCGACGAUCCUUGUUAGGCCCUGCCCCGCACCAGGCAACGCUAACACAGGAUGGGAGGCUUAGGCUAAGGCACAUUUACAGUAGAGGGGCCAGGAAAUCCGAGGCUCACGUUCCAACGCUGCAGUGCCCCAACAGAGGAUUGAGCAUCA
B9: chr20:17587764:17587765:+_ENSG00000125868_ENST00000474024|hu_hu|FALSE|FALSE (ssRNA)
RNA: GGGAGUUCUACAGUCCGACGAUCGUGGCACUGAAUAAUCUACACAGGGCAUCCUUCAAAGGCUACAAUUAAGGAUCCACCUAACUUUUCAGCAAUACAAGCCCGAUUGAGAUCUUCUGGUCCAUUUGCUUGACAUUCAUGUUUCAACAGAGGAUUGAGCAUCA
B10: 424969_440308_2181_CDS_ENSG00000141252_ENST00000437048|human|control|control (ssRNA)
RNA: GGGAGUUCUACAGUCCGACGAUCCAGCAGCAGCUGUUCUGCUCCCACCAUGCUAAUUGGCUUGCACUUGAAGAGGUGGGUGAUGAAUUUGGGAAUGAAGGAGUUUGCAAAUUUAACGCAGAACUGAGUGAAGUACUUGCGUGUCAACAGAGGAUUGAGCAUCA
B11: chr3:7442581:7442582:+_ENSMUSG00000027499_ENSMUST00000028999|mus_hu|FALSE|FALSE (ssRNA)
RNA: GGGAGUUCUACAGUCCGACGAUCUAUUGUACAAUACAAAACAGUGUAAAUAACACAGCAGUAACACACAGAUACGUAAUGCUAAAAACAGUGCUUUCUGGAUCUUUCUUUUACUGGGUGAACACUUGAGCCAGAGAUAUUUAACAACAGAGGAUUGAGCAUCA
B12: 37564108_37564228_4529_CDS_ENSG00000125686_ENST00000300651|human|control|control (ssRNA)
RNA: GGGAGUUCUACAGUCCGACGAUCUGCUGGUGACUUACUAUGGCUGGGAGAGCCACGCUCAUGCUUUGGAGUGGAACCACUGAUGAGUGGAGAGCCAUAGUUUUUAGAAGAAGCCAUUUGAGGCCUAAGCCCUUCUCCACUACUCAACAGAGGAUUGAGCAUCA
B13: chr6:36887377:36887378:+_ENSG00000198663_ENST00000480824|hu_mus|FALSE|FALSE (ssRNA)
RNA: GGGAGUUCUACAGUCCGACGAUCUGUUCGGCACUGGAAGGGAGGGAUGAGCUGCAACAUGGCUUCCCCGCUGCCGAGGGUGAACAGGUCAUGCACCUUAUGCAUCUUGCUACCCACCACAGGUUCCGGCUGGAUCAGGAAACACAACAGAGGAUUGAGCAUCA
B14: chr2:33267772:33267773:-_ENSMUSG00000068966_ENSMUST00000091037|mus_hu|FALSE|FALSE (ssRNA)
RNA: GGGAGUUCUACAGUCCGACGAUCCAUUCUUCCAGUGUAACAAAAAGAAAGCAACUGCUCAAACACAUUGGGAUUUUUAAUCACUGAUAUUGACAAGCCACUCAUGGUACUUAACGCUGAAUGGUCCCGGAAAUAUGGGGAGCUCAACAGAGGAUUGAGCAUCA
B15: chr11:30046843:30046844:-_ENSMUSG00000020315_ENSMUST00000011877|mus_hu|FALSE|FALSE (ssRNA)
RNA: GGGAGUUCUACAGUCCGACGAUCGUAGUGGUAAUAAGUCACCACAUAAGUGAUUAUGGACUUCUCAUCAGGAUGGUCCACGCUGAUGUCUUCGGGGUCCAACAGUUUAGUGAGGCCGAGGUGCUGUUCUGCCAGAUUAAAUGCCAACAGAGGAUUGAGCAUCA
B16: chr4:137866854:137866855:+_ENSMUSG00000028757_ENSMUST00000030538|mus_mus|FALSE|FALSE (ssRNA)
RNA: GGGAGUUCUACAGUCCGACGAUCGUCAUCACCAUCAAAGGGGACCCACUUGCCAUUGGAGAGCUGUUCUAUGAUGAUGCUAUACUCCACCAAGUCGGUGACAGUGUAGGCAUUGGGUGGAGCCAUCUCGCCCACCCGGUGAUGCAACAGAGGAUUGAGCAUCA
B17: chr1:16667403:16667404:+_ENSMUSG00000025940_ENSMUST00000065373|mus_mus|FALSE|FALSE (ssRNA)
RNA: GGGAGUUCUACAGUCCGACGAUCGUCAUAACCCAUUAGAUGGUUAUAGUCUUCAGGGUUUAAAAAGAGUGCUGGAUUAACUAAUAGCGAUUUUGUUUUAGCAUAAAAGCUGGUGAAUAUAUGUGCGCUCUCUGGAAUUGUCACCAACAGAGGAUUGAGCAUCA
B18: chr5:145543945:145543946:-_ENSG00000133706_ENST00000545646|hu_hu|hu_hu_hu_mus_True|1_68 (ssRNA)
RNA: GGGAGUUCUACAGUCCGACGAUCCUGAACGGCCAGUGGUGGGAAAUAAUCAAGCCAGUGCUCUGCUUCAGAAAAUUUCACUAUGUCGUCAUCAGAGAGCCCAAGGGAUUUCAUAAUGUCCCACUGGUACUUAGAAGAUCCAGCCAACAGAGGAUUGAGCAUCA
B19: chr14:35078925:35078926:-_ENSG00000129515_ENST00000362031|hu_hu|motif|central (ssRNA)
RNA: GGGAGUUCUACAGUCCGACGAUCAAAAUUUGGCAAUGAACUCUUUGUGUGAACAGUGAAUUUUACUUUAUCCCGCUCACGGAGAGCAUCAGAAAUGUCCACCUGCAGAGCAGCAUCACUUUGAAGAUCUACAUUUAUUGCUUUCAACAGAGGAUUGAGCAUCA
B20: chr3:49066234:49066235:-_ENSG00000178035_ENST00000326739|hu_mus|FALSE|FALSE (ssRNA)
RNA: GGGAGUUCUACAGUCCGACGAUCAGACGUCAAGUCCACCUGAUCUGCAGUGAAGUCGAUAUACCCAGGAAGAAUGAGAAAAUCAUUGUAGGUGAGGCCGUCCCCGCAGUUGAAGAGCUGCUGCGCUGUGAGCCCGUCGUCCGGCAACAGAGGAUUGAGCAUCA
B21: chr10:34018870:34018871:+_ENSMUSG00000039485_ENSMUST00000047935|mus_mus|motif|central (ssRNA)
RNA: GGGAGUUCUACAGUCCGACGAUCACGGUUCUUCACAGUACAUAGAUAUCGGGAACACAGCAGAAAGUAUGAAGCCUGGCGGGUUCUUGGUAAGAAUGUGUCAAGCUUUCUUGUGGCAGAGAACCACUUAAAAAAAAAAAUGAACAACAGAGGAUUGAGCAUCA
B22: 61442556_61442676_1405_CDS_ENSG00000126814_ENST00000261249|human|control|control (ssRNA)
RNA: GGGAGUUCUACAGUCCGACGAUCGAGGAAGUCUUUCCCAUCCAAGUUGAAGACUUUCACCUUUUGGUCCACUUUAUUUAAUUUACAGUUGUACAACAGCCAUUUAUGAGAUUCAGGAUUGAGAUCAUUGGCAAAUACAGUGCACAACAGAGGAUUGAGCAUCA

In this test the target is T1, UNK ZnF1-3. Description: nsRBNS (natural sequence RNA bind-n-seq); RBNS binding buffer (assumed for nsRBNS): 25 mM Tris pH 7.5, 150 mM KCl, 3 mM MgCl2, 0.01% Triton X-100, 500 ug/ml BSA, 20 U/ml SUPERase-In, 4 C; UNK is unkempt and MSI1 is Musashi-1; names of the RNAs are library labels; protein concentration not given here; high values mean tight binding.
As to B1, the binding signal turned out to be 1.27 enrichment R. The figure for B2 is 1.33 enrichment R; for B3 it is 0.773 enrichment R.

For the molecule B4, the binding signal stood at 0.744 enrichment R. The figure for B5 is 0.944 enrichment R; for B6 it is 2.01 enrichment R; for B7 it is 0.979 enrichment R. For B8, the binding signal amounted to 0.709 enrichment R. The molecule B9 had a binding signal of 1.1 enrichment R. For B10, the binding signal is 1.18 enrichment R.

B11 yielded a binding signal of 0.774 enrichment R. As to B12, the binding signal is 0.879 enrichment R. Regarding B13, the binding signal amounted to 1.26 enrichment R. The value for B14 was 1.49 enrichment R. The molecule B15 displayed a binding signal of 0.782 enrichment R. Take B16: the binding signal amounted to 0.974 enrichment R. B17: the binding signal was determined as 0.896 enrichment R.

In turn, B18 gave a binding signal of 1.64 enrichment R.

Take B19: the binding signal stood at 1.23 enrichment R.

The molecule B20 had a binding signal of 1.75 enrichment R. B21 registered a binding signal of 1.68 enrichment R.

Regarding B22, the binding signal was determined as 1.35 enrichment R.
